# This is one part of the list.
# B1: SRA-1 (Homo sapiens), P21757 (protein)
# chain: MEQWDHFHNQQEDTDSCSESVKFDARSMTALLPPNPKNSPSLQEKLKSFKAALIALYLLVFAVLIPLIGIVAAQLLKWETKNCSVSSTNANDITQSLTGKGNDSEEEMRFQEVFMEHMSNMEKRIQHILDMEANLMDTEHFQNFSMTTDQRFNDILLQLSTLFSSVQGHGNAIDEISKSLISLNTTLLDLQLNIENLNGKIQENTFKQQEEISKLEERVYNVSAEIMAMKEEQVHLEQEIKGEVKVLNNITNDLRLKDWEHSQTLRNITLIQGPPGPPGEKGDRGPTGESGPRGFPGPIGPPGLKGDRGAIGFPGSRGLPGYAGRPGNSGPKGQKGEKGSGNTLTPFTKVRLVGGSGPHEGRVEILHSGQWGTICDDRWEVRVGQVVCRSLGYPGVQAVHKAAHFGQGTGPIWLNEVFCFGRESSIEECKIRQWGTRACSHSEDAGVTCTL
# Assays:
# Assay in all cases: glycan array binding signal (z-score within array); higher = stronger binding
# Settings in all cases: glycan notation: IUPAC condensed, linker removed
# [1] = biological target: GalNAc(b1-4)GlcNAc
# Procedure, shortened: (§1)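 Negative Z-scores can be read as non-binding. The Z-score is calculated within each array and then averaged across arrays of one protein sequence at different concentrations or buffers and across linkers. Arrays, 3228 in all, were curated from the Consortium for Functional Glycomics database and kept only where the protein sequence was available.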
# [2] = biological target: GalNAc(b1-4)GlcNAc(b1-2)Man
# Procedure, shortened: as §1
# [3] = biological target: GalNAc(b1-4)GlcNAc(b1-2)Man(a1-3)[GalNAc(b1-4)GlcNAc(b1-2)Man(a1-6)]Man(b1-4)GlcNAc(b1-4)GlcNAc
# Procedure, shortened: as §1
# [4] = biological target: GalNAc(b1-4)GlcNAc(b1-3)GalNAc(b1-4)GlcNAc
# Procedure, shortened: as §1
# [5] = biological target: GalNAc(b1-4)GlcNAc6S
# Procedure, shortened: as §1
# [6] = biological target: GalNAc(b1-6)GalNAc
# Procedure, shortened: as §1
# [7] = biological target: GalNAc3S(b1-4)GlcNAc
# Procedure, shortened: as §1
# [8] = biological target: GalNAc3S(b1-4)GlcNAc3S
# Procedure, shortened: as §1
# [9] = biological target: GalNAc3S(b1-4)[Fuc(a1-3)]GlcNAc
# Procedure, shortened: as §1
# [10] = biological target: GalNAc4S6S(b1-4)GlcNAc
# Procedure, shortened: as §1
# [11] = biological target: GalNAc6S(b1-4)GlcNAc
# Procedure, shortened: as §1
# [12] = biological target: Glc(a1-4)Glc
# Procedure, shortened: as §1
# [13] = biological target: Glc(a1-4)Glc(a1-4)Glc(a1-4)Glc
# Procedure, shortened: as §1
# [14] = biological target: Glc(a1-6)Glc(a1-6)Glc
# Procedure, shortened: as §1
# [15] = biological target: Glc(a1-6)Glc(a1-6)Glc(a1-6)Glc
# Procedure, shortened: as §1
# [16] = biological target: Glc(b1-4)Glc
# Procedure, shortened: as §1
# [17] = biological target: Glc(b1-6)Glc
# Procedure, shortened: as §1
# [18] = biological target: GlcA(b1-3)Gal
# Procedure, shortened: as §1
# [19] = biological target: GlcA(b1-3)GlcNAc
# Procedure, shortened: as §1
# [20] = biological target: GlcA(b1-6)Gal
# Procedure, shortened: as §1
# [21] = biological target: GlcA3S(b1-3)Gal(b1-4)GlcNAc(b1-2)Man
# Procedure, shortened: as §1
# [22] = biological target: GlcA3S(b1-3)Gal(b1-4)GlcNAc(b1-3)Gal(b1-4)Glc
# Procedure, shortened: as §1
# [23] = biological target: GlcNAc(a1-3)Gal(b1-4)GlcNAc
# Procedure, shortened: as §1
# [24] = biological target: GlcNAc(a1-4)Gal(b1-3)GlcNAc
# Procedure, shortened: as §1
# [25] = biological target: GlcNAc(a1-4)Gal(b1-4)GalNAc
# Procedure, shortened: as §1
# [26] = biological target: GlcNAc(a1-4)Gal(b1-4)GlcNAc
# Procedure, shortened: as §1
# [27] = biological target: GlcNAc(a1-4)Gal(b1-4)GlcNAc(b1-3)Gal(b1-4)Glc
# Procedure, shortened: as §1
# [28] = biological target: GlcNAc(a1-4)Gal(b1-4)GlcNAc(b1-3)Gal(b1-4)GlcNAc
# Procedure, shortened: as §1
# [29] = biological target: GlcNAc(a1-4)Gal(b1-4)GlcNAc(b1-3)Gal(b1-4)GlcNAc(b1-3)Gal(b1-4)GlcNAc
# Procedure, shortened: as §1
# [30] = biological target: GlcNAc(a1-4)Gal(b1-4)GlcNAc(b1-3)Gal(b1-4)[Fuc(a1-3)]GlcNAc(b1-3)Gal(b1-4)[Fuc(a1-3)]GlcNAc
# Procedure, shortened: as §1
# [31] = biological target: GlcNAc(a1-6)Gal(b1-4)GlcNAc
# Procedure, shortened: as §1
# [32] = biological target: GlcNAc(b1-2)Gal(b1-3)GalNAc
# Procedure, shortened: as §1
# [33] = biological target: GlcNAc(b1-2)Man(a1-3)[GlcNAc(b1-2)Man(a1-6)]Man(b1-4)GlcNAc(b1-4)GlcNAc
# Procedure, shortened: as §1
# [34] = biological target: GlcNAc(b1-2)Man(a1-3)[GlcNAc(b1-2)Man(a1-6)]Man(b1-4)GlcNAc(b1-4)[Fuc(a1-6)]GlcNAc
# Procedure, shortened: as §1
# [35] = biological target: GlcNAc(b1-2)Man(a1-3)[GlcNAc(b1-4)][GlcNAc(b1-2)Man(a1-6)]Man(b1-4)GlcNAc(b1-4)GlcNAc
# Procedure, shortened: as §1
# [36] = biological target: GlcNAc(b1-2)Man(a1-3)[GlcNAc(b1-4)][GlcNAc(b1-2)Man(a1-6)]Man(b1-4)GlcNAc(b1-4)[Fuc(a1-6)]GlcNAc
# Procedure, shortened: as §1
# [37] = biological target: GlcNAc(b1-2)[GlcNAc(b1-4)]Man(a1-3)[GlcNAc(b1-2)Man(a1-6)]Man(b1-4)GlcNAc(b1-4)GlcNAc
# Procedure, shortened: as §1
binder,measurement,setting,value
B1,glycan array binding signal (z-score),[1],1.24
same,glycan array binding signal (z-score),[2],-0.006
same,glycan array binding signal (z-score),[3],-0.175
same,glycan array binding signal (z-score),[4],-0.387
same,glycan array binding signal (z-score),[5],-0.142
same,glycan array binding signal (z-score),[6],-0.341
same,glycan array binding signal (z-score),[7],-0.066
same,glycan array binding signal (z-score),[8],0.296
same,glycan array binding signal (z-score),[9],-0.274
same,glycan array binding signal (z-score),[10],0.43
same,glycan array binding signal (z-score),[11],-0.594
same,glycan array binding signal (z-score),[12],-0.121
same,glycan array binding signal (z-score),[13],-0.104
same,glycan array binding signal (z-score),[14],-0.085
same,glycan array binding signal (z-score),[15],0.295
same,glycan array binding signal (z-score),[16],-0.089
same,glycan array binding signal (z-score),[17],-0.651
same,glycan array binding signal (z-score),[18],-0.139
same,glycan array binding signal (z-score),[19],0.159
same,glycan array binding signal (z-score),[20],-0.198
same,glycan array binding signal (z-score),[21],-0.242
same,glycan array binding signal (z-score),[22],0.861
same,glycan array binding signal (z-score),[23],-0.37
same,glycan array binding signal (z-score),[24],-0.409
same,glycan array binding signal (z-score),[25],-0.192
same,glycan array binding signal (z-score),[26],-0.118
same,glycan array binding signal (z-score),[27],-0.319
same,glycan array binding signal (z-score),[28],-0.019
same,glycan array binding signal (z-score),[29],-0.483
same,glycan array binding signal (z-score),[30],0.578
same,glycan array binding signal (z-score),[31],-0.155
same,glycan array binding signal (z-score),[32],0.299
same,glycan array binding signal (z-score),[33],-0.325
same,glycan array binding signal (z-score),[34],-0.359
same,glycan array binding signal (z-score),[35],0.113
same,glycan array binding signal (z-score),[36],-0.285
same,glycan array binding signal (z-score),[37],-0.114
